Assay results published in the supplement of paper PMC10126150.
Values marked as one replicate rest on one cluster of the flow cell; about a third of the high ones do not repeat.

System: ATP
Test: switch fluorescence ratio, 500 uM ATP over buffer (Cy3 cluster intensity, sum of 5 cycles each) (fold (ratio)); higher = stronger signal-on switching upon ATP binding; sequences stand for … in TCGTCGGCAGCGTCAGATGTGTATAAGAGACAGTTTTTTTTTTTTTTTTTTTTTTTTT…TC
Details: aptamer strand: ATP DNA aptamer (quencher-CACCTGGGGGAGTATTGCGGAGGAAGG + anchor), 100 nM annealed; ATP concentration: 500 uM; one replicate
Procedure, shortened: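 Imaging in selection buffer was followed by imaging after 15 min with 500 uM ATP at 22 °C, for Cy3-labelled switching-strand clusters annealed to 100 nM quencher-labelled ATP aptamer on a modified Illumina MiSeq flow-cell. Five of these buffer/ATP cycles ran, separated by NaOH stripping and re-annealing. The fluorescence ratio per cluster is summed target-cycle over summed buffer-cycle Cy3 intensity, averaged per switch-domain sequence; clusters outside 100-1000 RFU were removed.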
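Further: ATP exposure 15 min at 22 °C before imaging.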

| Sequence | switch fluorescence ratio |
| --- | --- |
| GGCAGACGTT | 0.986 |
| TAGGAAGCGC | 1.07 |
| ATTCAAGATA | 0.98 |
| CATCTCCCAT | 1.07 |
| CATGAGCTCA | 1.04 |
| GAGGTGATT | 0.965 |
| CCAGGTGTGA | 3.8 |
| GGCAATGACG | 1.05 |
| GATAAAGCAT | 1.06 |
| CCAGGGGAGC | 1.26 |
| AGCGAGTGAC | 1.06 |
| TTTCGTAT | 1 |
| TGGAATCATA | 0.964 |
| TCATGAAACC | 1.02 |
| GGAGCGGTTC | 2.18 |
| TTTAGCGGCT | 1.03 |
| TACTAGTTAG | 1.01 |
| TGGAGGGTG | 1.07 |
| GGACATTGGC | 1 |
| TTAGGTCCGT | 0.955 |
| GCCCCGGCCT | 1.15 |
| AGTGGGTGTG | 1.08 |
| ACCGCATGGG | 1.17 |

| Sequence | switch fluorescence ratio |
| --- | --- |
| CGACAAAGGG | 0.988 |
| GCCAGAGCGG | 1.07 |
| ACTCGCGTCC | 1.28 |
| GATCTATATG | 0.941 |
| TATATTGATA | 1.02 |
| CTGAGGTAAC | 2.09 |
| TATTAGTGG | 0.974 |
| CCAGCGGCGA | 1.12 |
| GAGTAGCAAG | 1.03 |
| GCTGTTTGGA | 1.01 |
| TTGTGGCCAG | 1 |
| GGCCTGCGCG | 0.996 |
| GCTGAGAGG | 0.981 |
| GCGAAACTGG | 0.98 |
| AATTACCCAC | 1.39 |
| AGTAAGGGAA | 1.01 |
| AGCCTGTGCC | 0.981 |
| TAAAATGTCG | 0.957 |
| ACATTCACTG | 1.11 |
| CGCGGTCGGC | 1.03 |
| CTGTTTAGGT | 0.978 |
| ATTCTCACTT | 0.971 |
| TCGGACTGG | 1 |

| Sequence | switch fluorescence ratio |
| --- | --- |
| CGCGAGAGGG | 1.01 |
| ATAGCGGCCG | 1.04 |
| AGAACTTTA | 1.04 |
| TCTTACCCCG | 1.02 |
| ATCAGCGGGC | 1.08 |
| GTGTAAAAGG | 1.18 |
| TCTGGCCTCG | 0.984 |
| GCCCGGGGGC | 1.05 |
| GCGAAAATGA | 1.02 |
| GCTCCAAGTC | 1.19 |
| ATGATCGGTT | 0.97 |
| CTAGCGGGAA | 0.999 |
| CTAGTAAAGG | 0.953 |
| TCCAGCAT | 1.26 |
| CCCACGGATA | 1.1 |
| CCCTTTGTTA | 1.03 |
| GACATGCGAA | 1.03 |
| CTTGCTTACA | 0.983 |
| GCTACCCCCA | 1.67 |
| CAGGCCTTCC | 2.66 |
| GAGTAGCTCG | 0.99 |
| CCATCAAGTA | 1.05 |
| TGTTCAAAGC | 0.936 |

| Sequence | switch fluorescence ratio |
| --- | --- |
| CCCGGTCCGT | 1.03 |
| TTTGAATAGC | 1.02 |
| TCGCTTAAT | 1.06 |
| CGATGAGCT | 1.01 |
| ATTAGGTTAA | 1.02 |
| AGCTACGTTG | 0.988 |
| GATCCTGCTG | 1.06 |
| AATACTAATG | 0.987 |
| AATTTCACGT | 1.06 |
| ACCATTATC | 1.06 |
| TAGGTGTTCA | 1.05 |
| GCTCGTGGGT | 0.994 |
| TATTAGGGC | 0.947 |
| ACGTATTAAA | 1.02 |
| AGTGAAGTGT | 1 |
| CTAGGTTAC | 1.47 |
| GCAACAAGAA | 1.02 |
| ATAGCCAAAA | 1 |
| TCAGCGCATT | 1.36 |
| ACCCACCCGT | 1.28 |
| GCTCTCGATG | 1.03 |
| GGTGGCTAGA | 0.973 |
| AGCAGCACAT | 1.15 |

| Sequence | switch fluorescence ratio |
| --- | --- |
| AATATGATTA | 1 |
| AGTCCTGTGG | 1 |
| TTCCAAGGTC | 0.961 |
| CGAAATACGA | 2.85 |
| AGTATGAACT | 1.04 |
| TTAATTGTTG | 0.95 |
| TCCGTCACAT | 1.41 |
| CTGCGGAATT | 1.13 |
| GGAGTGGGCG | 0.974 |
| AACTCCTTCT | 1.17 |
| GAAGATAAAT | 0.974 |
| CCTTGTCGTA | 0.998 |
| ATTTGGCTTG | 1.01 |
| TGTGTGTCGC | 1.02 |
| ATTGCAGTAC | 5.08 |
| TTTGGGACTG | 1.08 |
| TCAGCTAATC | 1.39 |
| AGCAGCTTCT | 0.995 |
| AATAGGATGC | 1 |
| ATGTCCCGTG | 1.01 |
| TGCTTAAGGT | 0.999 |
| TAAGTATCTA | 1.02 |
| CTATGGGCTC | 0.984 |

| Sequence | switch fluorescence ratio |
| --- | --- |
| TCTGTGGGCC | 0.995 |
| TGCCTCATCG | 1.05 |
| TAAGAATATT | 1.07 |
| TACATAGATA | 0.991 |
| CCGACTAAAG | 1.19 |
| GGTGTAAC | 0.949 |
| AGTCTAGACC | 1.01 |
| CCTTCTAATC | 2.12 |
| CCCCATACAT | 1.05 |
| GAAAGGGATC | 1.07 |
| GACGGCTAAC | 1.16 |
| TAACGATAGC | 1.06 |
| GAATTATCT | 1.01 |
| CGTTTGCGTC | 1.04 |
| AGACCAGCG | 1.01 |
| CCGCTAATCA | 4.31 |
| AACAAGGGGC | 1.14 |
| CAAACCAAAC | 1.66 |
| CTGAAGAAAG | 1.04 |
| CGTTTAGGGC | 0.962 |
| CGACGAGACT | 1.4 |
| CTCGCCTACG | 1.19 |
| GTGCTTGTGC | 0.982 |

| Sequence | switch fluorescence ratio |
| --- | --- |
| CGTTCGGGG | 1.02 |
| TTAGCTGAGC | 1.03 |
| ACGAACTCGT | 0.993 |
| ATGCCACACT | 1.04 |
| AGCGACTCTT | 1.07 |
| CGGGATACGT | 1.15 |
| CACTTCTTTA | 1.03 |
| TCAAGGTAGA | 1.01 |
| GATTGCGCTT | 1.01 |
| TTCAGTGCTA | 1.03 |
| AGGGGTGGCC | 1.01 |
| TCCATCTCAG | 1.05 |
| GCTCGAGGCA | 1.01 |
| TGCTCGGGTG | 1.33 |
| TGGCCTTTGT | 1 |
| CATGAGTCAG | 0.927 |
| TGTTGGACAA | 1 |
| CGCGATCAGG | 1.24 |
| ATATTTCAG | 0.999 |
